Test results taken from PubChem BioAssay AID488969 (Vanderbilt High Throughput Screening Facility, 2010).
Over roughly 110,000 compounds, “z-score” has its median near -0.1; the highest 2% begin near 2. Some of the results follow. Active and inactive are the calls of the source.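 How the source made its calls: active means z-score in the third read window above 3 or below -3; inactive means the rest.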

What follows are molecules tested against Metabotropic glutamate receptor 8 (Rattus norvegicus) (UniProt P70579) (assay: mGluR8 Gi/Go-coupled signaling modulation – cell-based, rat, thallium flux, HTS, primary screen (AID 488969)). Settings: HEK293 rat mGluR8, GIRK (G protein-gated inwardly rectifying potassium channel) thallium flux, FluoZin2; at 10 µM; stronger effect = higher value; submaximal glutamate (EC20) added with thallium.
UniProt P70579, sequence (P70579 whole entry, looked up): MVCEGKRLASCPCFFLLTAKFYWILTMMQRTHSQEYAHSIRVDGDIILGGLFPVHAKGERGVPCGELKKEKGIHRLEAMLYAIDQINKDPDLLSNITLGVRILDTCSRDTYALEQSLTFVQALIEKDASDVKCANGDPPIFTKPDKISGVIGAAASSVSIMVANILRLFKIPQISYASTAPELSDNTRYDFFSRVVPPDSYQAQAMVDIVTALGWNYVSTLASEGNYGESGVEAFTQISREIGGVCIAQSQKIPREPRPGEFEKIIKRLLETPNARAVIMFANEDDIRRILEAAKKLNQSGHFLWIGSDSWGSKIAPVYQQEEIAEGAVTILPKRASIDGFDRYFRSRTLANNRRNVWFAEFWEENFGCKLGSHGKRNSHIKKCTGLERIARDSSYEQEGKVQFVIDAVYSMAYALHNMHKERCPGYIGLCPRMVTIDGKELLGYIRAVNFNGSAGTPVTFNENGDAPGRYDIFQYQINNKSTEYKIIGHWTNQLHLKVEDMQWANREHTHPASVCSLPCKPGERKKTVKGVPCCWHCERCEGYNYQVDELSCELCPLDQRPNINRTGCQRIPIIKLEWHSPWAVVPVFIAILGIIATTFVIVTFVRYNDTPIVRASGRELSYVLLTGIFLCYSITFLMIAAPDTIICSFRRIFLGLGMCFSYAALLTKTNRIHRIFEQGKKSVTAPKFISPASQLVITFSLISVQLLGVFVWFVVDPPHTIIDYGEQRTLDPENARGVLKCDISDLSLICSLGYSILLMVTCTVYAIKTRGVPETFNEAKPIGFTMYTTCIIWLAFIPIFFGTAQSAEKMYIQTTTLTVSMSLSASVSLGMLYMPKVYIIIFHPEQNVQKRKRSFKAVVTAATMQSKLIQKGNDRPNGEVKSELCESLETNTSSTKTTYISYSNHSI

Compound	z-score
COc1ccc(N=C(N(C)C)P(=O)(N(C)C)N(C)C)cc1	0.372
O=[N+]([O-])c1ccc(NC(=S)N/C(=N/CS(=O)(=O)c2ccccc2)c2ccccc2)cc1	0.245
O=C(CCn1c(=O)oc2ccccc21)N1CCOCC1	-0.393
O=C(/C(=C/c1ccccc1)c1ccccc1)N1CCCCC1	-0.248
Cc1cc(N2C(=O)C(O)=C(C(=O)c3cccs3)C2c2cccc(O)c2)no1 (configuration not stated)	-0.216
Cc1cccc(NC(=S)NN2CCN(C)CC2)c1	-0.088
CCN(CC(=O)NC1CCCCCC1)S(=O)(=O)c1ccccc1	-0.176
COc1ccccc1Nc1nc2ccccc2[nH]1	0.699
Cc1ccc(Nc2ccc(-n3ccnc3)nn2)cc1C	0.0826
Clc1ccc(-c2nc(Cc3ccccc3)no2)cc1	-0.129
O=C(Nc1nccs1)c1cccc(NC(=O)c2ccco2)c1	-0.296
COc1ccc(CNC(=O)c2cc3c(C)nc4ccccc4c3o2)c(OC)c1	-0.209
N#Cc1c(-c2ccccc2Cl)cc(C2CC2)nc1N	0.952
COc1cccc(C(c2c(NC(=O)c3ccccc3)sc(C)c2C)N2CCN(C)CC2)c1 (configuration not stated)	-0.221
CCCC(=O)NC(c1ccc(OC)c(OC)c1)c1c(O)ccc2ccccc12 (configuration not stated)	-0.164
O=C1c2cccc3cc(Br)cc(c23)C(=O)N1Nc1ccc(Br)cc1	-0.252
COC(=O)C1Cc2c([nH]c3ccccc23)C(C)N1 (configuration not stated)	-0.00869
Cc1ccc(Cn2ccc(=O)c(Cc3c(Cl)cccc3Cl)c2C)cc1	-0.227
CCCCOc1ccc(Br)cc1/C(C)=N/NC1=NCCN1	1.54
COc1cc(C2NC(=S)NC(C)=C2C(=O)OC(C)C)ccc1OC(C)C (configuration not stated)	-0.28
CCn1c(=NC(=O)CSC(C)=O)sc2cc(OC)ccc21	0.477
Cc1ccccc1C(=O)NC(=S)Nc1ccc(Cc2ccncc2)cc1	-0.501
CC1CC(C)CN(C(=O)c2ccccc2Nc2ccc(SC(F)F)cc2)C1 (configuration not stated)	-0.146

Compound	z-score
O=C(CN1CCN(c2ncccn2)CC1)N1CCc2ccccc21	-0.0193
Cc1c(Cl)cccc1NC(=S)N1CCN(c2ncccn2)CC1	-0.0626
COc1ccc(Cn2c(=O)[nH]c3cc(C(=O)NCCCN4CCCC4=O)ccc3c2=O)cc1	-0.401
CSCSC1=C(C#N)C(c2ccc(Cl)cc2)C(C(C)=O)=C(C)N1 (configuration not stated)	active: 3.87
CCCNC(=O)C1CCN(S(=O)(=O)c2c(C)noc2/C=C\c2ccc(OC)cc2)CC1	-0.554
O=C(CN1CCC(NC(=O)c2ccc(F)cc2)CC1)NCc1ccccc1F	0.457
CCOC(=O)C1=C(C)N=C(SC)N(C)C1c1ccccc1 (configuration not stated)	-1.08
O=C1C(Cl)=C(N2CCOCC2)C(=O)N1CCc1ccccc1	-0.308
N#CC(C(=O)NCc1ccccc1)c1nc2ccccc2nc1N1CCCC1 (configuration not stated)	-0.252
Cc1nc(N(C)C)c2sc(=S)n(C)c2n1	0.47
O=C(Cc1n[nH]c(=O)[nH]c1=O)N/N=C/c1ccccc1	-0.18
CC(=O)c1ccc(NC(=O)c2cnn3c(C(F)F)cc(C4CC4)nc23)cc1	0.1
CCNC(=O)C1CC(=O)N(c2ccc(Br)cc2)C1 (configuration not stated)	1.03
O=S(=O)(Nc1cc(Sc2cccc3cccnc23)c(O)c2ccccc12)c1ccc(F)cc1	active: 5.2
CC(=O)Nc1c(C(=O)N2CCCCCC2)cnn1-c1ccccc1	-0.74
Cc1ccc(NC2CC(=O)N(Cc3ccccc3)C2=O)cc1 (configuration not stated)	-0.0824
O=C(COC(=O)CCSc1ccc(Cl)cc1)NCc1ccccc1	-0.25
CNS(=O)(=O)c1cccc2nsnc12	-0.156
CC(=O)Nc1ccc(OC(=O)c2ccco2)cc1	-0.125
Cn1c(=O)oc2cc(S(=O)(=O)NCCN3CCN(c4ccccc4)CC3)ccc21	-0.321
CCN(CC)CCNC(=S)Nc1ccc(Cl)cc1	0.561
COc1ccc(-c2nc(N)nc(C)c2Oc2ccccc2Br)c(O)c1	-0.381
O=C(/C=C/Nc1ccccc1)c1ccc(Oc2ncccn2)cc1	-0.188

Compound	z-score
CCOC(=O)C(C)n1ncn2cccc2c1=O (configuration not stated)	-0.581
O=C(CS(=O)(=O)c1ccccc1)Nc1nc(-c2ccccc2)cs1	0.874
COc1ccccc1NC(=O)CC1C(=O)NCCN1C(=O)Nc1ccc(Cl)c(Cl)c1 (configuration not stated)	0.0563
CCCCC1(Cc2cccc([N+](=O)[O-])c2)C(=O)N(c2ccccc2)N(c2ccccc2)C1=O	-0.247
O=C(CSc1cccc(C(F)(F)F)c1)NC(=O)c1ccccc1	0.0234
O=C(Nc1ccc(OCc2ccccc2)cc1)c1cccc([N+](=O)[O-])c1	-1.52
Cc1cccc(N2CCN(C(=O)c3c(C)nn(Cc4ccccc4Cl)c3C)CC2)c1C	0.0617
CCCOC(=O)NC1C(NC(=O)OCCC)N(C)C(=O)N1C (configuration not stated)	0.328
Cc1ccc(-n2cnc3scc(-c4cccs4)c3c2=O)cc1	-0.366
COc1ccc(-c2cnn3c(N)c(S(=O)(=O)C(C)(C)C)cnc23)cc1	-0.142
Cc1cc(C)c(S(=O)(=O)NCCn2ccc3ccccc32)c(C)c1	-0.437
Cc1cc(NC(=O)CCC(=O)N(Cc2cccs2)C(C(=O)NC2CCCC2)c2cccnc2)no1 (configuration not stated)	-0.0533
CN(C(=O)c1ccccc1)C1(C)CCS(=O)(=O)C1 (configuration not stated)	-0.199
COc1ccc2c(CN3CCN(S(=O)(=O)c4cccs4)CC3)cc(=O)oc2c1	-0.0625
Cc1nc2c(cnn2-c2ccccc2Cl)c(=O)n1-c1ccc(N2CCC(C)CC2)cc1	-1.16
CC(=O)Nc1ccc(S(=O)(=O)N[C@@H](C)C(=O)Nc2ccc(N3CCOCC3)cc2)cc1	0.0468
O=C(NCc1cccs1)c1csc2ccccc12	0.347
CN(C)c1cccc(C(=O)NC2CCCCCC2)c1	-0.0577
Fc1ccc(C2CC(c3ccco3)=NN2c2ccccc2)cc1 (configuration not stated)	0.625
Cc1cc(C)c2c(N)c(C(=O)c3ccccc3)oc2n1	-0.545
O=c1c2ccccc2c(-c2ccc(O)cc2)nn1-c1cccc(C(F)(F)F)c1	-0.47
Cc1ccc(C2CC2c2n[nH]c(=S)n2-c2cccc(Cl)c2)cc1 (configuration not stated)	0.358
O=S(=O)(Nc1ccc(O)c(Sc2nc3ccccc3s2)c1)c1ccc(Cl)cc1	-0.418

Compound	z-score
Cc1ccc(NC(=O)CN(C)C(=O)CSc2ncc(C(F)(F)F)cc2Cl)cc1	-0.234
CC(=O)c1cc(F)c(N2CCN(C(=O)c3ccco3)CC2)cc1C	0.167
O=C(OCC#CCSc1nnc(-c2cccc3ccccc23)o1)c1cccs1	0.0313
O=C(NCC1CCCO1)c1ccc(Cl)c(F)c1F (configuration not stated)	-0.146
Cc1cccc(C(=O)OCC(=O)Nc2ccc(N3CCCCC3)cc2)c1O	-0.231
C#CCSc1nc2[nH]ncc2c(=O)[nH]1	-0.143
CN(C(=O)c1ccccc1C(=O)c1ccccc1)C1CCS(=O)(=O)C1 (configuration not stated)	-0.175
Cc1ccc(S(=O)(=O)N2CCCC2C(=O)O)s1 (configuration not stated)	-0.175
CC1CN(C2CCN(C(=O)c3ccccc3Cl)CC2)CC(C)O1 (configuration not stated)	0.238
O=C(OCc1ccc2c(c1)OCO2)c1ccc(S(=O)(=O)N2CCCCC2)cc1	-0.138
Cc1ccc(C)c(CN2C(=O)C3CCCN3c3ccc(C#N)cc32)c1 (configuration not stated)	-0.327
CCOC(=O)c1ccccc1NC(=O)c1ccccc1SC	-0.106
Cc1ccc(OCC(=O)NC2CCCc3ccccc32)c(C)c1 (configuration not stated)	-0.16
CCc1nnc(NC(=O)CSc2nnc(-c3ccc(NS(=O)(=O)c4ccccc4)cc3)o2)s1	-0.343
CC12CCC(c3c1nc1ccccc1[n+]3[O-])C2(C)C (configuration not stated)	-0.19
COC(=O)c1ccc(NC(=O)Cn2nc(-c3ccncc3)nc2SCC(=O)Nc2nccs2)cc1	-0.14
O=C(CCn1c(=O)oc2ccccc21)NCCN1CCc2ccccc2C1	0.37
CCOc1ccc(C2/C(=C(/O)c3ccccc3)C(=O)C(=O)N2CCCN(C)C)cc1OC (configuration not stated)	0.188
Cc1nc(N2CCN(Cc3ccccc3)CC2)nc2c1C(=O)CC(C)C2 (configuration not stated)	-0.812
Cc1cccc(C(=O)NC(=S)N2CCN(C(=S)NC(=O)c3cccc(C)c3)CC2)c1	0.153
NNc1nccc(Nc2ccccc2C(=O)O)n1	1.44
O=C(NCC1CCCO1)C12CN(Cc3ccccc3)CC1C(c1cccc([N+](=O)[O-])c1)=NO2 (configuration not stated)	0.0433
CCOC(=O)COn1c(=O)c[n+]([O-])c2ccccc21	-0.0558

Compound	z-score
Cc1ccc(C(=O)Nc2ccccc2C(N)=O)o1	0.0853
CC(C)C(=O)OCC(=O)Nc1ccc(N=Nc2ccccc2)cc1	active: 10.5
COC(=O)c1sc(N)c(C(=O)OC)c1CSc1nnnn1C	0.0241
CC(C)Oc1ccc2nnnn2n1	-0.239
CCCOc1ccc(C(O)C(CN2CCOCC2)c2ccccc2)cc1 (configuration not stated)	-0.138
CCOCCCNC(=S)N1CCN(C(=O)C(=O)Nc2ccc(C(=O)OC)cc2)CC1	-0.11
CC(C)Oc1cccc(-c2nnc(SCC(=O)Nc3ccc4c(c3)OCCO4)n2N)c1	-0.419
Cn1cc(CC(=O)N2CCN(c3ccccc3F)CC2)c2ccccc21	-0.102
CC1CN(S(=O)(=O)c2cccc(-c3csc(-c4ccccc4)n3)c2)CC(C)O1 (configuration not stated)	0.384
CCOC(=O)c1c(CNCCN(CC)CC)n(C)c2cc(Br)c(OC)cc12	active: 3.02
C/C(=N\NC(=O)c1c(Cl)c(C)nn1C)c1ccc(NC(=O)COc2ccc(Cl)cc2C)cc1	0.132
COC(=O)CNC(=O)c1ccc(C)s1	-0.182
CC(C)CNC(=S)NC(=O)c1ccc(Cl)cc1Cl	active: 13.8
O=C(Cn1cc2c(n1)CCCC2)N1CCOCC1	0.216
CCOC(=O)C1=C(c2ccccc2)ON(C)C1c1ccccc1 (configuration not stated)	-0.0203
CCNC(=S)Nc1ccc(N(c2ccccc2)C(C)C)cc1	-0.0152
COc1cc2c(=O)n(Cc3ccccc3)c(=O)n(CC(=O)NCCc3ccccc3)c2cc1OC	-0.669
Cc1ccc(NC2=C(Cl)C(=O)OC2OC(=O)c2ccco2)cc1 (configuration not stated)	-0.434
CC1CCC2C(=O)N(c3ccccc3OC(=O)c3ccccc3)C(=O)C2C1 (configuration not stated)	-0.566
CCN(CCO)Cc1csc2cccc(Br)c12	-0.193
